The results in this text go back to US20080118512A1 (DELENEX THERAPEUTICS, published 2008).

For assay [1], the target named is T1, human ALK epitope peptide (amino acids 391-406 of the ALK protein) (human).
T1 construct: In the yeast two-hybrid screen it was a C-terminal fusion to LexA; also called Alk LBD peptide; Alk LBD
T1 peptide: GRIGRPDNPFRVALEY
Briefly: ELISA on GST-ALK peptide. (An ELISA detects its analyte on a solid surface through an enzyme-linked reagent.)

Assay [2] addresses T1, human ALK epitope peptide (amino acids …). Briefly: ELISA with Alk LBD peptide.

B1: scFv ESBA521 (scFv)
scFv: QSVLTQPPSVSAAPGQKVTISCSGSTSNIGDNYVSWYQQLPGTAPQLLIYDNTKRPSGIPDRFSGSKSGTSATLGITGLQTGDEADYYCATWDNDKWGVVFGGGTKLEVLGGGGGSGGGGSGGGGSSGGGS[about 100 residues not listed]DAWLDVLSDGFDYWGQGTLVTVSS
notes: also called ESBA512
What is called EC50 (read off the curve) is the concentration at which the effect is half-maximal. Broadly, the Kd is the free concentration of one partner at which half of the binding sites on the other are occupied at equilibrium, for simple one-to-one binding. A low value points to higher affinity. Regarding B1, in assay [1], the 50% effective concentration (EC50 (read off the curve)) was ~7 nM and the affinity, expressed as Kd, was 7.2 nM. Further, the dissociation constant Kd in assay [2] is ~7 nM.

B2: framework FW4.4 scFv (scFv)
scFv: QSVLTQPPSVSAAPGQKVTISCSGSTSNIGDNYVSWYQQLPGTAPQLLIYDNTKRPSGIPDRFSGSKSGTSATLGITGLQTGDEADYYCGTWDSSLSGVVFGGGTKLTVLGGGGGSGGGGSGGGGSSGGGS[about 100 residues not listed]DAGIAVAGTGFDYWGQGTLVTVSS
notes: also called framework 4.4 scFv; WT FW4.4
Take B2: the binding result in assay [1] was “no binding (tested: 10000 nM)”.

B3: primary binder scFv isolated from the FW4.4 VH CDR3 library (first screening round) (scFv)
scFv: QSVLTQPPSVSAAPGQKVTISCSGSTSNIGDNYVSWYQQLPGTAPQLLIYDNTKRPSGIPDRFSGSKSGTSATLGITGLQTGDEADYYCGTWDSSLSGVVFGGGTKLTVLGGGGGSGGGGSGGGGSSGGGS[about 100 residues not listed]DAWLDVLSDGFDYWGQGTLVTVSS
notes: also called probably clone H5 SH 5.3
Take B3: in assay [1], the concentration giving a half-maximal response (EC50 (read off the curve)) is ~30 nM and the dissociation constant (Kd) amounted to 31 nM.
